In patent US7271245B2, “Methods and compositions for inhibition of metastasis” (The Scripps Research Institute, priority 2004, dated 2007):

B1: Bc-15: patient derived human scFv antibody against activated αvβ3 with RGD motif in CDR-H3; cDNA ATCC PTA-6304 (protein)
scFv: MAQVQLVQSGAEVKEPGSSVKVSCKASGGTFSSYAIYWVRQAPGQGLEWMGWINPDSGDTNSAQQFQGRVTMTRDTSISTAYMELSRLRSDDTAMYYCARPPRGDGPDYWGQGTLVTVSSGGGGGS[letters of about 100 residues not shown]RGLGGLVDYKDDDDK
B2: Mut-15: RGE containing mutant version of scFv Bc-15 (protein)
chain: MAQVQLVQSGAEVKEPGSSVKVSCKASGGTFSSYAIYWVRQAPGQGLEWMGWINPDSGDTNSAQQFQGRVTMTRDTSISTAYMELSRLRSDDTAMYYCARPPRGEGPDYWGQGTLVTVSSGGGGGS[letters of about 100 residues not shown]RGLGGLVDYKDDDDK

What was measured:
Type in all cases: cell-based
[1] = system: BMS breast cancer cells; experiment: Tumor cell arrest during blood flow; details: 3 μM scFv, human blood, collagen I matrix, shear rate 50 s^−1
Protocol: (§1) FIGS. 3A, 3B, 3C, 3D, 3E. scFv Bc-12 and Bc-15 inhibit αvβ3 mediated adhesive breast cancer cell functions. (A) Adhesion of BMS human breast cancer cells to fibrinogen (Fg), vitronectin (VN) or type I collagen (Col I) in the absence or presence of 3 μM Bc-12, Bc-15 or their RGE mutants Mut-12, Mut-15, compared to 200 μM GRGDSPK peptide (SEQ ID NO: 11). Protein coating concentrations: 10 μg/ml (VN, Col I) or 20 μg/ml (Fg). Adhesion time: 30 min at 37° C. […] Tumor cell adhesion was quantified by image acquisition at 30 predefined positions during blood flow. Left: representative images of platelet signal (thrombi, green fluorescence) and tumor cell signal (red fluorescence) at identical x,y positions. […]
Tumor cell arrest during bloodflow. Breast cancer cell arrest during blood flow and interaction with platelets was measured as described. […] Adhesive events and cell interactions were visualized and recorded by fluorescence video microscopy and quantified by image acquisition at 30 predefined positions followed by computerized image analysis (MetaMorph, Universal Imaging). Tumor cells were stained with hydroethidine (red fluorescence) (20 μg/ml, 30 min, 37° C.), washed, and mixed with blood containing 10 μM mepacrine (green fluorescence). Blood cells, tumor cells, and platelets acquired green fluorescence and were visualized at 488/515 nm (excitation/emission). […]

[2] = system: BMS human breast cancer cells; experiment: Haptotactic tumor cell migration toward fibrinogen (transwell); details: 2 μM scFv, 16 hrs at 37° C.
Protocol: as §1, with “C. (B) Effect of scFvs on haptotactic BMS cell migration toward a fibrinogen substrate (16 hrs at 37° C. in transwell chambers with or without 2 μM Bc-12, Bc-15 or their RGE mutants Mut-12 or Mut-15, compared to 200 μM GRGDSPK peptide) (SEQ ID NO: 11). (C) Effect of scFvs on breast cancer cell arrest during blood flow.” for “C.”
Cell adhesion and migration. Tumor cell adhesion under stationary conditions was analyzed as detailed earlier (19). […] Haptotactic tumor cell migration toward fibrinogen was analyzed in transwell chambers as detailed earlier. […]

[3] = system: human breast cancer cell lines, isolated from patient blood samples; experiment: Growth of breast cancer cell cultures in presence of scFv; details: 2 μM scFv, 4 days after seeding

| Molecule | breast cancer cell arrest during blood flow [1] | fibrinogen directed migration [2] | growth of breast cancer cell lines [3] |
| --- | --- | --- | --- |
| B1 | efficiently inhibited | inhibited BMS human breast cancer cell migration almost completely | retarded |
| B2 | no effect | no effect | no effect |
